Reference: PubChem BioAssay AID504332 (National Center for Advancing Translational Sciences (NCATS), 2011)
“And” between values parts separate entries of the source, which are not always exact repeats. Equal values may be shown once. In all, about 350,000 compounds went through this assay and about 31,000 (8.9%) were called active. The shares of active, inactive and inconclusive entries below differ from those in the screen. The call rests on the fitted dose curve; in most records, active means well fitted inhibition curve with a large enough effect; inconclusive means small, poorly fitted or top-dose-only effect; inactive means no such curve, though single readings can be large or run the other way. Potencies beside an inconclusive call are fits to weak or partial responses and may not hold up.

Biological target: Histone-lysine N-methyltransferase EHMT2 (Homo sapiens) (UniProt Q96KQ7)
Test: qHTS Assay for Inhibitors of Histone Lysine Methyltransferase G9a; further: nearly all actives have a fitted effect of over 75% in size
Settings: G9a H3K9 monomethylation, AlphaScreen, 2 h; activity, negative = inhibition: at 59 µM (top of the series) unless noted
Summary of the method: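 Readings reflect AlphaScreen signal from monomethyl-H3K9 antibody detection. HMT at 20 nM; substrate b-H3K9 500 nM; cofactor SAM 20 uM; 2 h RT reaction; compounds tested as titrations in qHTS with 15 min preincubation.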
On the % scale 0 is the no-effect control and ±100 the full control effect; potency means the concentration at half of the fitted maximal effect; tags describe the fitted curve by direction and shape.

Sequence of UniProt Q96KQ7 (Q96KQ7 whole entry, looked up): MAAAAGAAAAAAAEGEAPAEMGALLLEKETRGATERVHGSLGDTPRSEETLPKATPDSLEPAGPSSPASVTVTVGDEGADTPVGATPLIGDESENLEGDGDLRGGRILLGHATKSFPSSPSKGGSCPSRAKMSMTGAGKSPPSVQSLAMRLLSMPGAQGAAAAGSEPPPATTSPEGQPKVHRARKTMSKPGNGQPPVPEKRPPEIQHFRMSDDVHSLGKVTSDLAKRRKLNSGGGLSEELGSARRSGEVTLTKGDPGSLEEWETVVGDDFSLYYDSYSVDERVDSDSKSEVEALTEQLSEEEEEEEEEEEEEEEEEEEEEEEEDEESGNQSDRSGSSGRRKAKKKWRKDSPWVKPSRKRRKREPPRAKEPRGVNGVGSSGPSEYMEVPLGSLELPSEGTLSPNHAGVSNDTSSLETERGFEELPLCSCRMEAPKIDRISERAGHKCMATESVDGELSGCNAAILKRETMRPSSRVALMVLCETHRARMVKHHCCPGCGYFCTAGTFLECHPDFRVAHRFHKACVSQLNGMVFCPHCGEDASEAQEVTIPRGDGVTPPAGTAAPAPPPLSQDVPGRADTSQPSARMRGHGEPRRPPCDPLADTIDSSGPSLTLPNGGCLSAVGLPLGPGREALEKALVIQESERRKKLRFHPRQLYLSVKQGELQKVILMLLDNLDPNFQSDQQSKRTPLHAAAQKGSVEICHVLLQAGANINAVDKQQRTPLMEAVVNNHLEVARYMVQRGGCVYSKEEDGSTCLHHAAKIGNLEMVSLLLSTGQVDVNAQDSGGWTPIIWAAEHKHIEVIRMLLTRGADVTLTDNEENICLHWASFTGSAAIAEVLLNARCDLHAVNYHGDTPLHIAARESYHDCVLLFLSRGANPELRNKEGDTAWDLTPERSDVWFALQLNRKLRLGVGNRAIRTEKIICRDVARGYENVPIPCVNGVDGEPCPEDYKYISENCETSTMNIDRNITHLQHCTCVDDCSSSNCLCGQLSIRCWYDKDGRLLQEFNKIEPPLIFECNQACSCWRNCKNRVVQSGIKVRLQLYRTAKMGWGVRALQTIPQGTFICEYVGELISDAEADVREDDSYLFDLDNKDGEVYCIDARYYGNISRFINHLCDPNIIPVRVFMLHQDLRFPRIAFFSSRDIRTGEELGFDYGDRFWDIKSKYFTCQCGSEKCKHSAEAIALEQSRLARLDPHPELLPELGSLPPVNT

Row | Compound | Potency | activity, negative = inhibition
1 | COc1ccc(NC(=O)CCN2CCCCCC2)cc1 | inconclusive: 31.6 µM [inhibitor, single point] | –
2 | COc1cc(/C=C2\SC(N)=NC2=O)ccc1O | inconclusive: 89.1 µM [inhibitor, single point] | –
3 | COc1ccccc1CNC(=O)CC(c1ccc(F)cc1)N1Cc2ccccc2C1=O (stereo not drawn) | – | inactive: -19.5%
4 | CCOC(=O)c1c(-c2cccc([N+](=O)[O-])c2)csc1NC(=O)C1CCCCC1 | inconclusive: 39.8 µM [inhibitor, single point] | –
5 | Cc1ccc(Cn2c(SCC(=O)NCc3ccccc3)nc3ccsc3c2=O)cc1 | – | inactive: -7.43%
6 | CN(C)CC(C)(C)CNS(=O)(=O)c1ccc(Cl)c(Cl)c1 | inconclusive: 89.1 nM [inhibitor, full curve, poor fit] and inconclusive: 79.4 µM [inhibitor, partial curve, poor fit] | –
7 | CCOc1ccc(NC(=O)Cn2c(=O)n(CCCC(=O)NCCc3ccc(Cl)cc3)c(=O)c3ccccc32)cc1 | – | inactive: 38.2%
8 | COc1ccc(OC)c(CNCc2ccc3c(c2)OCO3)c1 | active: 35.5 µM | –
9 | CCc1cc2c(=O)n(CCC(C)C)c(=S)[nH]c2s1 | inconclusive: 89.1 µM [inhibitor, partial curve, poor fit] | –
10 | COc1ccc(/C=N/NC(=O)c2ccccc2F)cc1CN1CCN(c2ccc(F)cc2)CC1 | – | inactive: -50.9%
11 | Cc1ccc2[nH]cc(C(c3ccccc3)c3ccc(C)s3)c2c1 (stereo not drawn) | inconclusive: 7.08 µM [inhibitor, partial curve, poor fit] | –
12 | CCC(C)NC(=O)CCc1c(C)nc2c(c(C)nn2-c2ccc(C)cc2)c1C (stereo not drawn) | – | inactive: -4.56%
13 | CCOc1cccc(CC(=O)NCc2ccc3c(c2)CCN3C(C)=O)c1OCC | – | inactive: 4.86%
14 | Cc1c(Cl)cccc1NC(=O)CC(c1ccc(F)cc1)N1Cc2ccccc2C1=O (stereo not drawn) | inconclusive: 0.631 µM [inhibitor, partial curve, poor fit] | –
15 | O=C(NCCS(=O)(=O)NCCc1ccccc1)c1ccc2c(c1)OCO2 | – | inactive: 10.2% [at 102 µM]
16 | CC1=C(C(=O)Nc2ccccc2)C(c2ccco2)C(C#N)=C(SCC(=O)Nc2cccc(C)c2C)N1 (stereo not drawn) | inconclusive: 8.91 µM [inhibitor, partial curve] | –
17 | COc1ccc(S(=O)(=O)N2CCSC2c2ccccc2)cc1 (stereo not drawn) | – | inactive: 22.5% [at 12.7 µM]
18 | O=C1CS/C(=N/N=C2CCCC2)N1 | inconclusive: 89.1 µM [inhibitor, partial curve, poor fit] | –
19 | CCN1C(=O)C2C(c3ccccc3F)NC(Cc3ccc(O)cc3)(C(=O)OC)C2C1=O (stereo not drawn) | inconclusive: 79.4 µM [inhibitor, partial curve, poor fit] | –
20 | Cc1ccc(CN=c2c([N+](=O)[O-])nn(-c3cccc(Cl)c3)n2O)cc1 | active: 39.8 µM | –
21 | O=C(N/N=C/c1cccnc1)c1cccc(NC(=O)c2ccc(Cl)cc2)c1 | inconclusive: 39.8 µM [inhibitor, single point] | –
22 | COc1ccc(NC(=O)CSc2nc3ccccc3n2CC(=O)N2CCCCC2C)cc1 (stereo not drawn) | – | inactive: 16.3%
23 | CC(=O)COc1cc(C)cc2oc(=O)cc(-c3ccccc3)c12 | inconclusive: 0.562 µM [inhibitor, partial curve, poor fit] | –

Row | Compound | Potency | activity, negative = inhibition
24 | CC(CNC(=O)C1CCN(C(=O)N2CCOc3ccc(Cl)cc32)CC1)c1ccccc1 (stereo not drawn) | inconclusive: 22.4 µM [inhibitor, single point] | –
25 | CN(Cc1ccccc1)c1nc(CN2CCOCC2)nc2scc(-c3ccccc3)c12 | inconclusive: 39.8 µM [inhibitor, single point] | –
26 | CNS(=O)(=O)c1cccc(C(=O)OCc2cc(=O)n3cc(Br)ccc3n2)c1 | inconclusive: 25.1 µM [inhibitor, single point] | –
27 | NC(=O)c1sc2nc3c(c(-c4ccco4)c2c1N)CCC3 | inconclusive: 3.16 µM [inhibitor, partial curve, poor fit] | –
28 | CCN(c1ccc(Cl)cc1)S(=O)(=O)c1nnc(NC(=O)c2ccccc2C)s1 | – | inactive: -22.7%
29 | COC(=O)C1=C2SCC(=O)N2C(N)=C(C#N)C1 | inconclusive: 56.2 µM [inhibitor, partial curve, poor fit] | –
30 | CCCCn1c(CCC(=O)O)ccc1-c1cccs1 | inconclusive: 0.708 µM [inhibitor, full curve, poor fit] | –
31 | O=C(NCCCc1nc2ccccc2n1Cc1ccccc1Cl)c1ccco1 | – | inactive: 6.75%
32 | COCCN1CCn2c(nc3cc(NC(=O)Cn4nc(C)c5ccccc5c4=O)ccc32)C1 | inconclusive: 25.1 µM [inhibitor, single point] | –
33 | CCCCN(C)CCN1C(=O)C2C(C(=O)Nc3ccc(OC)cc3)C3C=CC2(O3)C1C(=O)NC1CCCCC1 (stereo not drawn) | inconclusive: 89.1 µM [inhibitor, single point] | –
34 | Nn1cnnc1SCC(=O)N(C1CCCCC1)C1CCCCC1 | inconclusive: 35.5 µM [inhibitor, partial curve, poor fit] | –
35 | Cc1ccc(C2=Nc3c(ccc4ccccc34)C(c3ccncc3)=NN2)cc1 | inconclusive: 14.1 µM [inhibitor, full curve, poor fit] | –
36 | CS(=O)(=O)c1ccc(Cl)c(NC(=O)CSc2nc3ccccc3c(=O)n2Cc2ccco2)c1 | inconclusive: 89.1 µM [inhibitor, partial curve, poor fit] | –
37 | COc1cc(C(=O)NCCCCCCNC(=O)c2cc(OC)c(OC)c(OC)c2)cc(OC)c1OC | inconclusive: 39.8 µM [inhibitor, single point] | –
38 | O=C1N=C(N2CCN(c3ccccc3)CC2)S/C1=C\c1ccco1 | active: 39.8 µM | –
39 | Nc1cc(=O)[nH]c(SCC(=O)Nc2nc3ccc([N+](=O)[O-])cc3s2)n1 | active: 39.8 µM | –
40 | Cc1onc(-c2c(F)cccc2Cl)c1C(=O)ONC(=O)c1ccco1 | active: 50.1 µM | –
41 | O=C(CCN1CCN(C/C=C/c2ccccc2)CC1)Nc1ccccc1Cl | inconclusive: 89.1 µM [inhibitor, single point] | –
42 | O=C(NCCCn1ccnc1)c1cccc(S(=O)(=O)Nc2ccccc2F)c1 | inconclusive: 89.1 µM [inhibitor, single point] | –
43 | CC(=O)N(C1=C(N)C(=O)c2ccccc2C1=O)C(C)C | inconclusive: 12.6 µM [inhibitor, full curve, poor fit] | –
44 | Cn1cc([N+](=O)[O-])c(C(=O)N2CCCCCC2)n1 | – | inactive: -4.36% [at 102 µM]
45 | Cc1sc2nc(SCCN(C)C)n(-c3ccccc3)c(=O)c2c1-c1ccc(F)cc1 | inconclusive: 89.1 µM [inhibitor, single point] | –
46 | CCOc1ccc(C2C(C(=O)c3cccs3)=C(O)C(=O)N2Cc2cccnc2)cc1 (stereo not drawn) | inconclusive: 79.4 µM [inhibitor, single point] | –

Row | Compound | Potency | activity, negative = inhibition
47 | CNC(C)C#Cc1c(-c2cc(OC)c(OC)c(OC)c2)noc1C (stereo not drawn) | active: 31.6 µM | –
48 | CSc1nc2cc(C)nn2c(-c2ccccc2)c1C#N | – | inactive: 44.9% [at 102 µM]
49 | O=C(CNS(=O)(=O)c1c(Cl)cccc1Cl)OCC(=O)N1CCN(c2ccccc2)CC1 | active: 56.2 µM | –
50 | CC(=O)NC(=S)Nc1ccccc1N1CCCCC1 | active: 50.1 µM | –
51 | COc1ccc(Cn2c(CO)cnc2SCc2ccc(F)cc2)cc1 | – | inactive: -37%
52 | CNC(=O)c1ccc(C)c(NC(=O)C2=C(C)OCCS2)c1 | inconclusive: 1.58 µM [inhibitor, partial curve, poor fit] | –
53 | CN1C2CCC1CC(NC(=O)c1cc(Cl)cc3[nH]cnc13)C2 (stereo not drawn) | inconclusive: 100 µM [inhibitor, single point] | –
54 | N/C(Cc1ccc([N+](=O)[O-])cc1)=N\OC(=O)c1ccccc1F | inconclusive: 89.1 µM [inhibitor, partial curve, poor fit] | –
55 | CN1CCN(S(=O)(=O)c2cccc(C(=O)Nc3cc(Cl)ccc3N3CCOCC3)c2)CC1 | active: 15.8 µM | –
56 | Cc1cccc(N(Cc2cc3ccccc3[nH]c2=O)C(=O)c2cccc(Cl)c2)c1 | inconclusive: 31.6 µM [inhibitor, partial curve, poor fit] | –
57 | Cc1ccc(S(=O)(=O)c2[nH]c(-c3ccccc3)nc2SCCC(=O)O)cc1 | inconclusive: 20 µM [inhibitor, partial curve, poor fit] | –
58 | O=c1cc(CCl)nc2sc3ccccc3n12 | inconclusive: 50.1 µM [inhibitor, partial curve, poor fit] | –
59 | COCCn1c(SCC(=O)Nc2sc(C)c(C)c2C#N)nnc1C(C)C | – | inactive: 16.7% [at 12.7 µM]
60 | CCC1(C)OC(=O)N(CCCn2ccnc2C)C1(C)O (stereo not drawn) | – | inactive: 5.82% [at 102 µM]
61 | Cc1ccc(NC(=O)CN2C(=O)NC(Cc3c[nH]c4ccccc34)C2=O)cc1 (stereo not drawn) | inconclusive: 3.98 µM [inhibitor, single point] | –
62 | COc1ccc(CO/N=C/c2c(C)[nH]c(=O)[nH]c2=O)cc1 | – | inactive: 22.9% [at 102 µM]
63 | COc1ccc(C(=O)O)cc1S(=O)(=O)Nc1cccc(C)c1 | inconclusive: 79.4 µM [inhibitor, single point] | –
64 | COc1ccc2[nH]cc(CCNc3ccnc(-c4ccccc4C)n3)c2c1 | – | inactive: 2.98% [at 0.501 µM]
65 | Cc1ccc(CNc2ccc(N3CCOCC3)cc2)s1 | inconclusive: 0.316 µM [inhibitor, full curve, poor fit] | –
66 | O=C(NNc1cc(Cl)ccc1Cl)c1cccs1 | active: 56.2 µM | –
67 | O=C(CSc1c[nH]c2ccccc12)N1CCOCC1 | inconclusive: 50.1 µM [inhibitor, single point] | –
68 | NC(=O)c1ccc(NC(=O)C2CCN(S(=O)(=O)Cc3ccccc3)CC2)cc1 | inconclusive: 31.6 µM [inhibitor, partial curve, poor fit] | –
